# Laboratory results from the antibiotic and cytotoxicity screens of Wong et al. (2023).
# Some of the results follow.
# System: HSkMC (human skeletal muscle cells)
# Test: cytotoxicity call (relative viability < 0.9)
# Settings: 10 µM
row,SMILES,cytotoxicity call
1,Cc1ccc(S(=O)(=O)Nc2ccc3c(c2)C(=O)N([C@H](C)CO)C[C@@H](C)[C@@H](CN(C)S(=O)(=O)c2c(C)noc2C)O3)cc1,inactive
2,C[C@H]1CN([C@@H](C)CO)C(=O)Cc2cc(NC(=O)Nc3ccc(F)cc3)ccc2O[C@H]1CN(C)Cc1ccc(-c2ccccc2)cc1,active
3,COc1ccc(NC(=O)Nc2ccc3c(c2)C(=O)N([C@H](C)CO)C[C@@H](C)[C@H](CN(C)Cc2ccc(C(=O)O)cc2)OCCCC[C@@H](C)O3)cc1,inactive
4,C[C@@H]1CCCCO[C@H](CN(C)S(=O)(=O)c2ccc(Cl)cc2)[C@H](C)CN([C@H](C)CO)C(=O)c2cc(NC(=O)Cc3ccccc3)ccc2O1,inactive
5,C[C@@H]1CN([C@H](C)CO)C(=O)Cc2cc(NC(=O)Nc3ccccc3)ccc2O[C@@H]1CN(C)Cc1ccc(Oc2ccccc2)cc1,active
6,Cc1noc(C)c1S(=O)(=O)N(C)C[C@H]1OCCCC[C@H](C)Oc2ccc(NC(=O)Nc3ccccc3)cc2C(=O)N([C@H](C)CO)C[C@H]1C,inactive
7,CN(C)CCCCCCNC(=O)[C@@H]1C[C@@H]2C(=O)N[C@@H](CCCC[N+](C)(C)C)C(=O)N2[C@@H]1c1cccc(OCCO)c1,inactive
8,C[C@@H]1CN([C@H](C)CO)C(=O)c2cc(NC(=O)CCC(F)(F)F)ccc2O[C@@H](C)CCCCO[C@@H]1CN(C)Cc1ccc(C(=O)O)cc1,inactive
9,C[C@@H]1CN([C@H](C)CO)C(=O)Cc2cc(NC(=O)CCN3CCOCC3)ccc2O[C@@H]1CN(C)S(=O)(=O)c1cccs1,inactive
10,C[C@@H]1CN([C@H](C)CO)C(=O)c2cccc(NC(=O)C3CC3)c2O[C@H]1CN(C)Cc1ccc(C(=O)O)cc1,inactive
11,Cl.NC(N)=NC(=O)Cc1c(Cl)cccc1Cl,inactive
12,COc1ccc(S(=O)(=O)N(C)C[C@H]2Oc3ccc(NS(=O)(=O)c4ccccc4)cc3CC(=O)N([C@H](C)CO)C[C@H]2C)cc1,inactive
13,COCC(=O)N1[C@@H]2c3ccc(C4=CCCC4)c(=O)n3C[C@@H]2[C@@H](CO)[C@@H]1C(=O)N1CCN(C)CC1,inactive
14,C[C@@H]1CN([C@@H](C)CO)C(=O)c2cc(NC(=O)C3CCCCC3)ccc2O[C@@H](C)CCCCO[C@@H]1CN(C)C(=O)c1ccncc1,inactive
15,Cc1noc(C)c1NC(=O)N(C)C[C@H]1Oc2ccc(NS(=O)(=O)c3cccs3)cc2CC(=O)N([C@@H](C)CO)C[C@@H]1C,inactive
16,CCCCC[C@@H](C)N,inactive
17,CCC(CC)c1ccc(O)cc1,inactive
18,C=CCNC(=O)C(=O)NC[C@H]1OCCCN1S(=O)(=O)c1ccccc1,inactive
19,COCCOC(=O)N1C(=O)[C@@]2(c3cc(C#CCC(C(=O)OC)C(=O)OC)ccc31)[C@H](C(=O)N1CCc3cc(OC)c(OC)cc3C1)[C@H]1C(=O)O[C@H](c3ccccc3)[C@H](c3ccccc3)N1[C@@H]2c1ccc(O)cc1,inactive
20,C[C@H](O)C#Cc1ccc2c(c1)O[C@H](CN(C)C(=O)Cc1ccccn1)[C@H](C)CN([C@H](C)CO)S2(=O)=O,inactive
21,NCCONC(=O)[C@@H]1CC[C@@H]2CN1C(=O)N2OS(=O)(=O)O,inactive
22,C[C@@H]1CCCCO[C@@H](CN(C)S(=O)(=O)c2ccc(F)cc2)[C@H](C)CN([C@@H](C)CO)C(=O)c2cc(NC(=O)Nc3cccc4ccccc34)ccc2O1,inactive
23,Cc1ccc(S(=O)(=O)Nc2ccc3c(c2)C(=O)N([C@@H](C)CO)C[C@@H](C)[C@@H](CN(C)Cc2ccc(Cl)c(Cl)c2)OCCCC[C@@H](C)O3)cc1,active
24,CC(C)C#Cc1ccc2c(c1)O[C@@H](CN(C)C(=O)Cc1ccccn1)[C@H](C)CN([C@H](C)CO)S2(=O)=O,inactive
25,O=C(C[C@@H]1CC[C@@H]2[C@H](COC[C@H](O)CN2C(=O)c2ccccc2)O1)NCCCN1CCOCC1,inactive
26,C[C@H]1CN([C@@H](C)CO)C(=O)Cc2cc(NC(=O)Cc3cn(C)c4ccccc34)ccc2O[C@H]1CN(C)C(=O)Nc1cccc2ccccc12,inactive
27,Cc1noc(C)c1S(=O)(=O)N(C)C[C@H]1OCc2cnnn2CCCC(=O)N([C@@H](C)CO)C[C@H]1C,inactive
28,Cc1ccc2nc(CN)[nH]c2c1,inactive
29,CO[C@H]1CN(C)C(=O)c2cc(NS(=O)(=O)CC(F)(F)F)ccc2OC[C@@H](C)N(Cc2ccccn2)C[C@@H]1C,inactive
